Inconclusive results, whose numbers are uncertain, are shown with a selection of clear calls. Potencies of inconclusive entries are doubtful fits and often do not repeat. Active and inactive are the calls of the source. The call rests on the fitted dose curve; in most records, active means well fitted activation curve with a large enough effect in the signal ratio, with a control signal flat (not every such curve was filed as active); inconclusive means small, poorly fitted or top-dose-only effect, or effect the other way, or a change in a side signal; inactive means flat fitted curve, though single readings scatter; the % refers to the signal ratio.
assay: qHTS Assay for Identification of Small Molecule Agonists for Hypoxia Response Element Signaling Pathway (AID 914); conditions: ME-180 (cervical carcinoma) HRE-bla reporter, beta-lactamase ratio, CoCl2, 17 h; activation: active compounds read high; on activation: top concentration of the series differs between compounds; % of control where 0% means no effect
How it was run: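 Reporter activity (beta-lactamase, CCF4 460nm/530nm ratio) in HRE-bla ME-180 cells is recorded after 17 h compound exposure with EC50 CoCl2 at 37 degrees Celsius. AC50 values come from titration data.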
Potency means the concentration at half of the fitted maximal effect; tags describe the fitted curve by direction and shape or compound fluorescence and quenching.

| SMILES | Potency | activation |
| --- | --- | --- |
| COc1ccc(C(=O)N/N=C2/C(=O)c3c(C)cc(C)cc3CC2(C)C)cc1 | inconclusive: 0.0251 µM [inhibitor, full curve, poor fit] |  |
| NC(CSS(=O)(=O)O)=N[C@@H]1C[C@H]2CC[C@@H]1C2 | inconclusive: 0.199 µM [activator, single point] |  |
| C[C@@H](CNC(N)=O)NC(N)=O |  | inconclusive: 31% |
| CN1CCN(c2ncncc2-c2cccnc2)CC1 |  | inconclusive: 10.9% |
| O=C(CCN1CCCCC1)c1csc2ccccc12 |  | inactive: -7.69% |
| O[C@H](CN1CCN(c2cccc(Cl)c2)CC1)C(c1ccccc1)c1ccccc1 | inconclusive: 25.1 µM [inhibitor, single point] |  |
| Cc1cc(Cl)nc2ccc(Cc3ccc4nc(Cl)cc(C)c4c3)cc12 | inconclusive: 1.58 µM [inhibitor, partial curve] |  |
| CC1(C)CC(=O)C(C(c2cccc(O)c2O)C2C(=O)CC(C)(C)CC2=O)C(=O)C1 | inconclusive: 3.16 µM [inhibitor, single point] |  |
| c1ccc(CN2CC[C@@H](CNc3ncnc4ccccc34)C2)cc1 | inconclusive: 3.16 µM [inhibitor, single point] |  |
| O=c1ccc2cc(O)c(O)cc2o1 | active: 10 µM |  |
| COC(=O)c1ccc(CCc2cc(O)ccc2O)cc1 | inconclusive: 6.31 µM [inhibitor, single point] |  |
| COC(=O)N1CCC2(CCN(Cc3ccccc3OC)CC2)CC1 |  | inactive: 2.91% |
| CC(=O)NCCNc1ncnc2ccc(-c3c(C)noc3C)cc12 | active: 3.16 µM |  |

From PubChem BioAssay (NCATS)
